Data: the RNAGym collection of RNA variant scans (doi:10.7554/elife.90254)
Read counts are not given, so values of variants with three or more changes are uncertain.

B1: LINE1-mini (parent)
chain: GGCAGAGCUCAACACAGCGUGGCAAAGUGGCUGUGGCUAGACUGCC

Variants of: B1
Assay: self-cleavage, relative activity (ratio to wild type); higher = more cleavage; in vitro, sequencing; the parent is a self-cleaving ribozyme

Which self-cleavage does the source give for UGGAGCGCUCAACACAGCGUGGCAAAGUGGCUUUGGCUAGACUGCU [G1U C3G A6C G33U C46U] here?
The self-cleavage was 0.04.

With UGCAGAGCUGAACACAGCGUGACAAAGUGGCUGUGGCUCGACUGCC [G1U C10G G22A A39C] as the variant, how does the self-cleavage read?
The self-cleavage was 0.01.

With UGCAGAGCUAAACAUAGCGUGGCAAAGUGUCUGUGGCUAGACUGCC [G1U C10A C15U G30U] as the variant, how does the self-cleavage read?
Its self-cleavage is 0.02.

For UGCAGAGGUCAACACAGCGUGACCAAGUGGCUGUGGCUAGACUGCC [G1U C8G G22A A24C], which self-cleavage is on record?
Its self-cleavage is 0.02.

Which self-cleavage does the source give for UGCAGAGAUCCAGACGGCGUAGCAAAGAGGCUGUGGCUAGACGGCC [G1U C8A A11C C13G A16G G21A U28A U43G] here?
The self-cleavage was 0.01.

With UGGAGAGCUCAACACAGCGUGGCAAAGUGGCUGUGCCUAGACUGCC [G1U C3G G36C] as the variant, how does the self-cleavage read?
Its self-cleavage is 0.03.

With UGCAGAGCUUAACACAGCGUGGCAAAGUGGCGGUGGCUAGAAUGCC [G1U C10U U32G C42A] as the variant, how does the self-cleavage read?
Its self-cleavage is 0.

Which self-cleavage does the source give for UGCAGAGCUGGACACAGCGUGGCAAAGUGGCUGUGGCUAGACUGCC [G1U C10G A11G] here?
The self-cleavage was 0.01.

For UGCAGAGCUUAACACAGCGUGGCAAAGUGGCUGUGGCAAGACUGCC [G1U C10U U38A], which self-cleavage is on record?
Its self-cleavage is 0.

For UGCAGAGCUAAACCCAGCGUGGCAAAGUGGCUGUGGGUAGACUGCA [G1U C10A A14C C37G C46A], which self-cleavage is on record?
Its self-cleavage is 0.01.

With UGCAGAGCUCAAAACAGCGUGGCGAAGUGGCUGUGGCUAGACUGCC [G1U C13A A24G] as the variant, how does the self-cleavage read?
The self-cleavage was 0.16.

With UGCAGAGCUACACACAGCAUAGCAAAGUGGCUGUGGCUAGACCGUC [G1U C10A A11C G19A G21A U43C C45U] as the variant, how does the self-cleavage read?
Its self-cleavage is 0.01.

For UGCAGAGUUCAACACAGAGUGGCAAAGUGGCUGUGGCUACACUGCC [G1U C8U C18A G40C], which self-cleavage is on record?
The self-cleavage was 0.09.

For UGCAGAGCUCAAAAUAGCGUGGCAAAGUGGCUGUGGCUAGACUGCC [G1U C13A C15U], which self-cleavage is on record?
The self-cleavage was 0.02.

Which self-cleavage does the source give for UGCAGAGCUCAAAACGCCGUGGCAAAGUGGCUGUGGCUAGACUGCC [G1U C13A A16G G17C] here?
The self-cleavage was 0.07.

Which self-cleavage does the source give for UGCAGAGCUCAAAACAGCGUGGUAAAGUGGCUGUGGCUAGACUGCC [G1U C13A C23U] here?
The self-cleavage was 0.03.

Which self-cleavage does the source give for UGAAGAGCUCAACACAGCGCGGCAAAGUGGCUGUGGCUAGACUGCC [G1U C3A U20C] here?
Its self-cleavage is 0.14.

Which self-cleavage does the source give for UGUAGAGCUCUACACAGCGUGGCAAAGUGGCUGUGGCUAGACUGCC [G1U C3U A11U] here?
Its self-cleavage is 0.03.

For UGCAGAGCUCAAGACAGCGUGGUUAAGUGGCUGUGGCUAGACCGCC [G1U C13G C23U A24U U43C], which self-cleavage is on record?
Its self-cleavage is 0.03.

With UGCAGAGCUCAAAACAGCUUGGCAAAGUGGCUGUGGCUAGAAUGUC [G1U C13A G19U C42A C45U] as the variant, how does the self-cleavage read?
Its self-cleavage is 0.07.

Which self-cleavage does the source give for UGCAGAGCUGAACUCAGCGUGGCAAGGUGACUGUGGCUAUACUGCC [G1U C10G A14U A26G G30A G40U] here?
Its self-cleavage is 0.

With UGGAGAGCUCAGCACAGCGUGGCAAAGUGGCUGUGGCUAGACUGCC [G1U C3G A12G] as the variant, how does the self-cleavage read?
The self-cleavage was 0.06.

Which self-cleavage does the source give for UGCAGAGUACAAAACAGCGUGGCAAAGUGGCUGUGGCUAGACUGCC [G1U C8U U9A C13A] here?
Its self-cleavage is 0.13.

Which self-cleavage does the source give for UGUAGAGCUCAACACAGCGUGGCAAAGUGGCUGGGGCUAGACUGCG [G1U C3U U34G C46G] here?
Its self-cleavage is 0.14.

With UGUAGAGCUCGACACUGCGUGGCAGAGUGGCUGUGGCUAGACUGCC [G1U C3U A11G A16U A25G] as the variant, how does the self-cleavage read?
Its self-cleavage is 0.01.

For UGCAGAGUUCAACACAGACUGGCAAAGUGGCAGUGGCUAGACUGCC [G1U C8U C18A G19C U32A], which self-cleavage is on record?
Its self-cleavage is 0.01.

For UGAAGAGCGUAACACAGCACGGCAAAGUGGCAGUGGCUAGACUGCC [G1U C3A U9G C10U G19A U20C U32A], which self-cleavage is on record?
The self-cleavage was 0.07.

Which self-cleavage does the source give for UGCAGAGCUCAAAACAGCGUGGCAAAGUGGCUGUGGCUAGGCUGCC [G1U C13A A41G] here?
Its self-cleavage is 0.07.

For UGCAGAGCUAAACACAGCGUGGCAAAGUGGCUGUGGCUAGAAUGCC [G1U C10A C42A], which self-cleavage is on record?
The self-cleavage was 0.

Which self-cleavage does the source give for UGCAGAGCUCAAAACACCGUGGCAAAGUGGUUGUGGCUAGACUGUC [G1U C13A G17C C31U C45U] here?
Its self-cleavage is 0.02.

Which self-cleavage does the source give for UGCAGAGAUCAACACAGCGUGGCAAAAUGGCUGUGGCUAGACUGCC [G1U C8A G27A] here?
The self-cleavage was 0.04.

Which self-cleavage does the source give for UGCAGAGCUCAAAACAGCGUGGCAAAGUGGCUGUGGCUCGACUGCC [G1U C13A A39C] here?
Its self-cleavage is 0.02.

Which self-cleavage does the source give for UGCAGAGCUCAAAGCAGCGUGGCAAAGUGGCUGUGUCUAGACUGCC [G1U C13A A14G G36U] here?
Its self-cleavage is 0.03.

For UGCAGAGAUCAACACAGCGUGGCAAAUUGGCUGUGGCUCGACUGCC [G1U C8A G27U A39C], which self-cleavage is on record?
Its self-cleavage is 0.07.

Which self-cleavage does the source give for UGCAGAGAUCAAUACAGCGUGACAAAGUGGCUGUGGCUAGACUGCC [G1U C8A C13U G22A] here?
The self-cleavage was 0.28.

For UGUAGAGCUCAACACAGCGUGGCAAAGUGGCUGUGGUUUGACUACC [G1U C3U C37U A39U G44A], which self-cleavage is on record?
Its self-cleavage is 0.04.

With UGCAGAGGUCAACACAGCGUGGCAAUGUGGCGGUGGCUAGACUGCC [G1U C8G A26U U32G] as the variant, how does the self-cleavage read?
The self-cleavage was 0.01.

With UGCAGAGGUCAACACAGCGUGGCAAAGUGGCUGUGACUAGACUGCC [G1U C8G G36A] as the variant, how does the self-cleavage read?
Its self-cleavage is 0.03.

With UGCAGAGCUGUACACAGUGUGGCAAAGUGGCUGUGGCUAGACUGCC [G1U C10G A11U C18U] as the variant, how does the self-cleavage read?
Its self-cleavage is 0.01.

With UGCAGAGAUCAACACAGCGUAGCAAAGUGGCUGUGGCUAGACUGCC [G1U C8A G21A] as the variant, how does the self-cleavage read?
Its self-cleavage is 0.21.

With UGGGGAGCUCAACACAGCGUGGCAAAGUCGCUGUGGCGAGACUGCC [G1U C3G A4G G29C U38G] as the variant, how does the self-cleavage read?
The self-cleavage was 0.01.

For UGAAGAGCUCAACACAGCGUUGCAAAGUGGCUGUGGCUAGACUGCC [G1U C3A G21U], which self-cleavage is on record?
The self-cleavage was 1.68.

For UGCAGAGAUCCACACAGCGUGGCAAAGUGGCUGUGGCUAGACUUCA [G1U C8A A11C G44U C46A], which self-cleavage is on record?
The self-cleavage was 0.02.

Which self-cleavage does the source give for UGCAGAGCUAUACACAGCGUGGCAAAGUGGCUGUGGAUAGACUGCC [G1U C10A A11U C37A] here?
The self-cleavage was 0.01.

With UGCAGAGCUCAAGACAGCGUGGCAAAAUGGCUGUGGCUUGACUGCC [G1U C13G G27A A39U] as the variant, how does the self-cleavage read?
Its self-cleavage is 0.13.

Which self-cleavage does the source give for UGUAGGGCUCAACACAGCGUGGCAAAGUGGCUGAGGCUAGACUGCC [G1U C3U A6G U34A] here?
The self-cleavage was 0.04.

For UGGAGAGCUCAACACUGCGUGGCAAAAUGGCUGUCGCUAGACUGCC [G1U C3G A16U G27A G35C], which self-cleavage is on record?
Its self-cleavage is 0.13.

With UGCAGAGCUGAAGACAGCGUGGCAAAGUGGAUGUGGCUAGACUGCC [G1U C10G C13G C31A] as the variant, how does the self-cleavage read?
Its self-cleavage is 0.01.

Which self-cleavage does the source give for UGCAGAGCUCAAGACAGCGUGGCAAAGUCGCUGUGGCUAGACUGCC [G1U C13G G29C] here?
The self-cleavage was 0.02.

For UGUAUAGCUCAACCCAGCGUGGCAAAGUGGCUGUGGCUAGACUGCC [G1U C3U G5U A14C], which self-cleavage is on record?
The self-cleavage was 0.15.

Which self-cleavage does the source give for UGCAGAGCUAAACACAGCGUGGCAAAGUGCCUGUGGCUAGACUACC [G1U C10A G30C G44A] here?
Its self-cleavage is 0.02.

Which self-cleavage does the source give for UGCAGAGUUCAAGACAGCGCGGCAAAGUGGCUGUGGCUAGAAUGCC [G1U C8U C13G U20C C42A] here?
The self-cleavage was 0.03.

Which self-cleavage does the source give for UGCAGAGGUUAACACAGCGUGGCAUAGUGCCUGUGGCUAGACUGCC [G1U C8G C10U A25U G30C] here?
The self-cleavage was 0.03.

For UGCAGAGCUCAAAACAGCGUGGCAAAGUGGCUGUGGCUAGAGUGCC [G1U C13A C42G], which self-cleavage is on record?
Its self-cleavage is 0.04.

For UGCAGAGCUAAAGACAGCGUGGCAAAGUGGCUGUGGCUAGGCUGCC [G1U C10A C13G A41G], which self-cleavage is on record?
Its self-cleavage is 0.02.

With UGCAGAGCUUUACACAGCGUGGCAAAGUGGCUGUGGCUAGACUGCC [G1U C10U A11U] as the variant, how does the self-cleavage read?
The self-cleavage was 0.02.
